# Measurements taken from the supplement of paper PMC8728848.
# The other results are listed elsewhere or left out.
# Key:
# Assay in all cases: glycan array binding signal (z-score within array); higher = stronger binding
# Conditions in all cases: glycan notation: IUPAC condensed, linker removed
# Gal3S6S(b1-4)GlcNAc6S = target: Gal3S6S(b1-4)GlcNAc6S
# Summary of the method: (§1)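 Glycan array data were curated from 3228 arrays in the Consortium for Functional Glycomics database and kept only where the protein sequence was available. Glycan names were converted to IUPAC-condensed notation, and columns mapping to the same glycan were averaged. The binding signal is a within-array Z-score, averaged across arrays of the same protein sequence at different concentrations or buffers and across linkers. Negative Z-scores can be read as non-binding.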
# Gal4S(b1-4)GlcNAc = target: Gal4S(b1-4)GlcNAc
# Summary of the method: as §1
# Gal4S6S(b1-4)GlcNAc = target: Gal4S6S(b1-4)GlcNAc
# Summary of the method: as §1
# Gal6S(b1-4)Glc = target: Gal6S(b1-4)Glc
# Summary of the method: as §1
# Gal6S(b1-4)Glc6S = target: Gal6S(b1-4)Glc6S
# Summary of the method: as §1
# Gal6S(b1-4)GlcNAc = target: Gal6S(b1-4)GlcNAc
# Summary of the method: as §1
# Gal6S(b1-4)GlcNAc6S = target: Gal6S(b1-4)GlcNAc6S
# Summary of the method: as §1
# GalNAc(a1-3)Gal = target: GalNAc(a1-3)Gal
# Summary of the method: as §1
# GalNAc(a1-3)GalNAc = target: GalNAc(a1-3)GalNAc
# Summary of the method: as §1
# GalNAc(b1-3)Gal = target: GalNAc(b1-3)Gal
# Summary of the method: as §1
# [1] = target: GalNAc(b1-3)Gal(a1-4)Gal(b1-4)GlcNAc
# Summary of the method: as §1
# [2] = target: GalNAc(b1-3)Gal(a1-4)Gal(b1-4)GlcNAc(b1-3)Gal(b1-4)Glc
# Summary of the method: as §1
# GalNAc(b1-3)GalNAc = target: GalNAc(b1-3)GalNAc
# Summary of the method: as §1
# GalNAc(b1-4)GlcNAc = target: GalNAc(b1-4)GlcNAc
# Summary of the method: as §1
# [3] = target: GalNAc(b1-4)GlcNAc(b1-2)Man(a1-3)[GalNAc(b1-4)GlcNAc(b1-2)Man(a1-6)]Man(b1-4)GlcNAc(b1-4)GlcNAc
# Summary of the method: as §1
# Glc(a1-4)Glc = target: Glc(a1-4)Glc
# Summary of the method: as §1
# Glc(a1-6)Glc(a1-6)Glc = target: Glc(a1-6)Glc(a1-6)Glc
# Summary of the method: as §1
# Glc(b1-4)Glc = target: Glc(b1-4)Glc
# Summary of the method: as §1
# Glc(b1-6)Glc = target: Glc(b1-6)Glc
# Summary of the method: as §1
# GlcA(b1-3)Gal = target: GlcA(b1-3)Gal
# Summary of the method: as §1
# GlcA(b1-3)GlcNAc = target: GlcA(b1-3)GlcNAc
# Summary of the method: as §1
# GlcA(b1-6)Gal = target: GlcA(b1-6)Gal
# Summary of the method: as §1
# [4] = target: GlcNAc(a1-3)Gal(b1-4)GlcNAc
# Summary of the method: as §1
# [5] = target: GlcNAc(a1-4)Gal(b1-3)GlcNAc
# Summary of the method: as §1
# [6] = target: GlcNAc(a1-4)Gal(b1-4)GalNAc
# Summary of the method: as §1
# [7] = target: GlcNAc(a1-4)Gal(b1-4)GlcNAc
# Summary of the method: as §1
# [8] = target: GlcNAc(a1-4)Gal(b1-4)GlcNAc(b1-3)Gal(b1-4)Glc
# Summary of the method: as §1
# [9] = target: GlcNAc(a1-4)Gal(b1-4)GlcNAc(b1-3)Gal(b1-4)GlcNAc
# Summary of the method: as §1
# [10] = target: GlcNAc(a1-4)Gal(b1-4)GlcNAc(b1-3)Gal(b1-4)GlcNAc(b1-3)Gal(b1-4)GlcNAc
# Summary of the method: as §1
# [11] = target: GlcNAc(a1-4)Gal(b1-4)GlcNAc(b1-3)Gal(b1-4)[Fuc(a1-3)]GlcNAc(b1-3)Gal(b1-4)[Fuc(a1-3)]GlcNAc
# Summary of the method: as §1
# [12] = target: GlcNAc(a1-6)Gal(b1-4)GlcNAc
# Summary of the method: as §1
# [13] = target: GlcNAc(b1-2)Gal(b1-3)GalNAc
# Summary of the method: as §1
# [14] = target: GlcNAc(b1-2)Man(a1-3)[GlcNAc(b1-2)Man(a1-6)]Man(b1-4)GlcNAc(b1-4)GlcNAc
# Summary of the method: as §1
# [15] = target: GlcNAc(b1-2)Man(a1-3)[GlcNAc(b1-2)Man(a1-6)]Man(b1-4)GlcNAc(b1-4)[Fuc(a1-6)]GlcNAc
# Summary of the method: as §1
# GlcNAc(b1-3)Gal = target: GlcNAc(b1-3)Gal
# Summary of the method: as §1
# [16] = target: GlcNAc(b1-3)Gal(b1-3)GalNAc
# Summary of the method: as §1
# GlcNAc(b1-3)Gal(b1-4)Glc = target: GlcNAc(b1-3)Gal(b1-4)Glc
# Summary of the method: as §1
# [17] = target: GlcNAc(b1-3)Gal(b1-4)GlcNAc
# Summary of the method: as §1
# [18] = target: GlcNAc(b1-3)Gal(b1-4)GlcNAc(b1-3)Gal(b1-4)GlcNAc
# Summary of the method: as §1
# GlcNAc(b1-3)GalNAc = target: GlcNAc(b1-3)GalNAc
# Summary of the method: as §1
# GlcNAc(b1-3)Man = target: GlcNAc(b1-3)Man
# Summary of the method: as §1
# [19] = target: GlcNAc(b1-3)[GlcNAc(b1-4)][GlcNAc(b1-6)]GlcNAc
# Summary of the method: as §1
# [20] = target: GlcNAc(b1-3)[GlcNAc(b1-6)]Gal(b1-4)GlcNAc
# Summary of the method: as §1
# [21] = target: GlcNAc(b1-3)[GlcNAc(b1-6)]GalNAc
# Summary of the method: as §1
# [22] = target: GlcNAc(b1-4)Gal(b1-4)GlcNAc
# Summary of the method: as §1
binder,measurement,setting,value
"DC-SIGN (Canis lupus), XP_853402 (protein) AGLCRPCPWKWELFQESCYFFSQTQNTWKESISACQNLRAQLVIINSTEEQKFLKSWNTRNNQRTWIGLSDHHNEGSWKWVDNTPLQLSFWKEGEPNNHGDEDCVELYSDGWNDNRCSTENFWICKKPSSPCPGPGLNDIFEAQKIEWHE",glycan array binding signal (z-score),Gal3S6S(b1-4)GlcNAc6S,-0.119
same,glycan array binding signal (z-score),Gal4S(b1-4)GlcNAc,-0.215
same,glycan array binding signal (z-score),Gal4S6S(b1-4)GlcNAc,0.055
same,glycan array binding signal (z-score),Gal6S(b1-4)Glc,-0.143
same,glycan array binding signal (z-score),Gal6S(b1-4)Glc6S,-0.246
same,glycan array binding signal (z-score),Gal6S(b1-4)GlcNAc,-0.003
same,glycan array binding signal (z-score),Gal6S(b1-4)GlcNAc6S,-0.191
same,glycan array binding signal (z-score),GalNAc(a1-3)Gal,0.043
same,glycan array binding signal (z-score),GalNAc(a1-3)GalNAc,0.12
same,glycan array binding signal (z-score),GalNAc(b1-3)Gal,-0.329
same,glycan array binding signal (z-score),[1],-0.174
same,glycan array binding signal (z-score),[2],-0.281
same,glycan array binding signal (z-score),GalNAc(b1-3)GalNAc,-0.154
same,glycan array binding signal (z-score),GalNAc(b1-4)GlcNAc,-0.21
same,glycan array binding signal (z-score),[3],0.245
same,glycan array binding signal (z-score),Glc(a1-4)Glc,-0.184
same,glycan array binding signal (z-score),Glc(a1-6)Glc(a1-6)Glc,-0.186
same,glycan array binding signal (z-score),Glc(b1-4)Glc,-0.253
same,glycan array binding signal (z-score),Glc(b1-6)Glc,-0.291
same,glycan array binding signal (z-score),GlcA(b1-3)Gal,-0.227
same,glycan array binding signal (z-score),GlcA(b1-3)GlcNAc,-0.201
same,glycan array binding signal (z-score),GlcA(b1-6)Gal,-0.19
same,glycan array binding signal (z-score),[4],-0.177
same,glycan array binding signal (z-score),[5],0.018
same,glycan array binding signal (z-score),[6],-0.115
same,glycan array binding signal (z-score),[7],-0.136
same,glycan array binding signal (z-score),[8],-0.428
same,glycan array binding signal (z-score),[9],0.148
same,glycan array binding signal (z-score),[10],-0.272
same,glycan array binding signal (z-score),[11],1.73
same,glycan array binding signal (z-score),[12],-0.105
same,glycan array binding signal (z-score),[13],-0.134
same,glycan array binding signal (z-score),[14],-0.156
same,glycan array binding signal (z-score),[15],0.048
same,glycan array binding signal (z-score),GlcNAc(b1-3)Gal,-0.308
same,glycan array binding signal (z-score),[16],0.027
same,glycan array binding signal (z-score),GlcNAc(b1-3)Gal(b1-4)Glc,-0.235
same,glycan array binding signal (z-score),[17],-0.185
same,glycan array binding signal (z-score),[18],-0.17
same,glycan array binding signal (z-score),GlcNAc(b1-3)GalNAc,-0.087
same,glycan array binding signal (z-score),GlcNAc(b1-3)Man,-0.182
same,glycan array binding signal (z-score),[19],-0.27
same,glycan array binding signal (z-score),[20],-0.336
same,glycan array binding signal (z-score),[21],-0.161
same,glycan array binding signal (z-score),[22],-0.111
